# Reference: article PMC4336329 (PLoS ONE, 2015)
# Out of some 310,000 compounds screened, about 14,000 (4.5%) showed an effect of 50% or more. Effects have a minus sign here. The list shows a part of the results.
# Target: human ether-à-go-go-related gene (hERG) potassium channel (human, UniProt Q12809)
# Assay: primary screen, population patch clamp on CHO cells stably expressing hERG
# 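Note: peak tail current of the secondary pulse compared with the same well before compound.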
# human ether-à-go-go-related gene (hERG) potassium channel, sequence (Q12809 whole entry, looked up): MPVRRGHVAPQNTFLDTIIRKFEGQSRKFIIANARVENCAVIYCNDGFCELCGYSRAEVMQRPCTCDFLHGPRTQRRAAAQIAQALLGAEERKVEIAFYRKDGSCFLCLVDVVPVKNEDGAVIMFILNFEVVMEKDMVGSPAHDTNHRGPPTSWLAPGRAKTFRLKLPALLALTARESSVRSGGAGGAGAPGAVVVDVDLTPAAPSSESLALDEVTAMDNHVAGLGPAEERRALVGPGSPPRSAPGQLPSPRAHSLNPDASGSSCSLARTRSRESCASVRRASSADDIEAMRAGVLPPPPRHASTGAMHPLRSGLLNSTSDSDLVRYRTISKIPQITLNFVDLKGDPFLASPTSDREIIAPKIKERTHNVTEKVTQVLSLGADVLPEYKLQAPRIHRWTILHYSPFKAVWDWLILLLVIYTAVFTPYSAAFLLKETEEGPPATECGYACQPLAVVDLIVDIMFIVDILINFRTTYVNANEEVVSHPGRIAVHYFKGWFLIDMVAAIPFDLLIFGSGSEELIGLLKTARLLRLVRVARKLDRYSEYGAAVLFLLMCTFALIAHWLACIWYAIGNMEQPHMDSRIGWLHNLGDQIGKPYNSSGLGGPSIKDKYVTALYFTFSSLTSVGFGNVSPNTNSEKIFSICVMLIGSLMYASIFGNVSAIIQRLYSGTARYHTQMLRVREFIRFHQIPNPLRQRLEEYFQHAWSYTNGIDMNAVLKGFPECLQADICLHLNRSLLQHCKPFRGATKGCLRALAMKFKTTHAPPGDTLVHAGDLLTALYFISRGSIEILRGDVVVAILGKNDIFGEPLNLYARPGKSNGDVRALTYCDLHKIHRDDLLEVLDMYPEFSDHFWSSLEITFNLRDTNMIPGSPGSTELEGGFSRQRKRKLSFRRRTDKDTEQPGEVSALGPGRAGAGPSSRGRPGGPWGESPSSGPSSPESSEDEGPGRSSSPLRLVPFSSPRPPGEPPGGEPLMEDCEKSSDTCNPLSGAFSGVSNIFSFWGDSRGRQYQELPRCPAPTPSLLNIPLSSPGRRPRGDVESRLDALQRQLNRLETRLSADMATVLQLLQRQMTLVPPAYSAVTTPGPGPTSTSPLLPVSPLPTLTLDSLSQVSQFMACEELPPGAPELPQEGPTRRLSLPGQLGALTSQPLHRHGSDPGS
row,Compound,"hERG current change (%, negative = inhibition) at 10uM"
1,COc1cc(OC)c(C(=O)OCC(=O)N2CC(=O)Nc3ccccc32)cc1OC,28.1%
2,CCCOc1ccc(N2CC(C(=O)Nc3ccccc3OC)CC2=O)cc1 (stereo not drawn),-16.9%
3,CCCCN(CCCNC(=O)Cn1ncc2ccsc2c1=O)Cc1ccccc1,-33.2%
4,CC(C)C(=O)NNC(=O)c1c(O)c2ccccc2[nH]c1=O,10.3%
5,COc1ccc(S(=O)(=O)N2CCC(C(=O)Nc3ccc4c(c3)OCCO4)CC2)cc1OC,-4.29%
6,Nc1ccc(CSc2ccc(Cl)cc2)cc1,8.64%
7,O=C(O)COc1ccc(/C=N/NC(=O)C(O)(c2ccccc2)c2ccccc2)cc1,26%
8,COc1ccc(N2CCN(c3nc4ccccn4c(=O)c3C=O)CC2)cc1,-27.7%
9,CCOc1ccc2[nH]c3nc(SCC(=O)NC4CC4)nnc3c2c1,14.1%
10,COc1cc(/C=C/C(=O)OC(C)C(=O)Nc2c(C)n(C)n(-c3ccccc3)c2=O)ccc1O (stereo not drawn),0.947%
11,CCc1sc(C(=O)N2CCCN(C)CC2)cc1Br,-11.6%
12,OCCC1CN(Cc2nc(-c3ccc(F)cc3)cs2)CCN1CCc1ccccc1 (stereo not drawn),-80.6%
13,COc1cc(/C=C/C(=O)N2CCN(C)CC2)cc(S(=O)(=O)N2CCc3ccccc32)c1OC.Cl,-7.62%
14,Cc1ccc(NC(=O)C2CC(=O)n3ncnc3N2)cc1 (stereo not drawn),-14.6%
15,CCN(CC)C(=O)c1cccc(NC(=O)c2cc(-c3ccccn3)nc3ccccc23)c1,-0.65%
16,CC(=O)c1cccc(NC(=O)COc2cc3oc(=O)c(CC(C)O)c(C)c3cc2Cl)c1 (stereo not drawn),-57.7%
17,CCC(C(=O)NCC1CCCO1)N(C(=O)CNS(=O)(=O)c1ccccc1)c1ccc(F)cc1 (stereo not drawn),4.08%
18,COC(=O)C1=C(C)Nc2ncnn2C1c1ccc(C)o1 (stereo not drawn),6.14%
19,CC(=O)c1ccc(NC(=O)CC(C)S(=O)(=O)c2ccc3c(c2)CCN3C(C)=O)cc1 (stereo not drawn),-11.4%
20,COc1cccc(-c2c(NC(C)=O)n(C)c3ccccc3c2=O)c1,18.3%
21,COc1ccc(C2CC(c3ccccc3O)=NN2C(=O)c2ccccc2)cc1OC (stereo not drawn),1.28%
22,O=C(CCCN1C(=O)/C(=C/c2ccccc2)SC1=S)Nc1cccc(O)c1,2.17%

row,Compound,"hERG current change (%, negative = inhibition) at 10uM"
1,NC(=O)c1c(NC(=O)c2ccncc2)sc2c1CCCCCC2,-7.5%
2,O/N=C(\CN1CCCCC1)c1ccccc1,13.4%
3,CN1CCN(C(=O)/C(=C/c2cn(C)c3ccccc23)NC(=O)c2ccccc2)CC1,14.9%
4,C=CCN1CCN(C(=O)CCCc2ccccc2)CC1,26.1%
5,Cc1oc2ccc(NS(=O)(=O)c3ccc(F)cc3)cc2c1C(=O)O,7.72%
6,Cc1ccccc1OCC(O)Cn1c(N2CCCCC2)nc2c1c(=O)[nH]c(=O)n2C (stereo not drawn),10.4%
7,CN1CCCN(C(c2ccccc2)c2ccc(Cl)cc2)CC1.Cl (stereo not drawn),-73.8%
8,O=C(/C=C/c1cccs1)c1ccc(NC(=O)c2cccc(Br)c2)cc1,17.6%
9,N#Cc1ccc(-c2csc(NC(=O)c3ccc(S(=O)(=O)N4CCc5ccccc5C4)cc3)n2)cc1,2.04%
10,CC(C)(CC(=O)O)CC(=O)Nc1cc(C(F)(F)F)cc(C(F)(F)F)c1,15.9%
11,CCN(CC)c1ccc(/C=C2\CCC(/C=N/NC(=O)c3ccc(=O)n(C)c3)=C2N2CCOCC2)cc1,9.64%
12,N#CC(=C=[N-])/C=C(\C(=O)c1ccccc1)[n+]1ccccc1,9.31%
13,CCOC(=O)N1CCN(c2cc(=O)n(-c3cccc(Br)c3)c(=O)[nH]2)CC1,9.31%
14,CCOc1ccc(N2C(=O)CC(SC(=NC)Nc3ccc(F)cc3)C2=O)cc1 (stereo not drawn),0.77%
15,COc1ccc(C(=O)O)cc1S(=O)(=O)NC(C)C,8.33%
16,Cc1ccc2nc(SCc3ccccc3)c(C=O)c(=O)n2c1,7.31%
17,CCOc1ccccc1NS(=O)(=O)c1ccc(-c2cnc(C3CC3)o2)cc1,12.8%
18,O=C(N/N=C\c1ccc([N+](=O)[O-])s1)c1cncc(Br)c1,-1.82%
19,Cc1ccc(SCCC(=O)OCC(=O)Nc2ccc(C(N)=O)cc2)cc1,6.03%
20,O=C(COC(=O)c1cc(S(=O)(=O)N2CCOCC2)ccc1Cl)NC1CC1,12.3%
21,NS(=O)(=O)c1ccc(CCNC(=O)c2ccc3c(c2)OCO3)cc1,18.1%
22,C=CCNC(=O)/C(C#N)=C/c1cn(-c2ccccc2)nc1-c1cccs1,-26.2%

row,Compound,"hERG current change (%, negative = inhibition) at 10uM"
1,Cc1ccc(S(=O)(=O)C(C#N)c2nc3ccccc3nc2OC(C)C)cc1 (stereo not drawn),-5.65%
2,CCCC1=C(C(=O)OCC)C(c2sccc2C)n2ncnc2N1 (stereo not drawn),8.12%
3,CC(C)CC(NC(=O)OC(C)(C)C)C(=O)O.O (stereo not drawn),3.52%
4,Cc1csc(N/N=C/c2ccc([N+](=O)[O-])cc2)n1,1.1%
5,CCOC(=O)c1c(C)nc2c(c1-c1ccccc1)C(=O)CC(C)(C)C2,-16.8%
6,N#Cc1c(NC(=O)C2CCCO2)sc2c1CCCCC2 (stereo not drawn),7.62%
7,Cn1nccc1C(=O)N1CCN(c2ccccc2F)CC1,12.5%
8,COC(=O)c1cc2ccsc2n1Cc1nc(-c2ccc(OC)cc2)oc1C,15.7%
9,COc1cccc(Nc2nc(C)cc(C)c2C(N)=O)c1,18.9%
10,O=C(NC1CCCCC1)c1ccc(OC2CCN(Cc3ccccn3)CC2)cc1,-16%
11,CC1CN(c2ccc([N+](=O)[O-])cc2C#N)CC(C)O1 (stereo not drawn),-48.6%
12,CC(C)C[C@H](NC(=O)C1CC(=O)N(c2ccc3c(c2)OCCO3)C1)C(=O)N1CCCCC1 (stereo partly drawn),2.06%
13,CN1C(C(=O)NCc2ccc(OC(F)(F)F)cc2)CC2Cn3c(nc4cc(Cl)c(Cl)cc43)C21 (stereo not drawn),-77.9%
14,O=C(CN1C(=O)c2ccccc2C1=O)NCc1ccccn1,2.64%
15,CCOC(=O)CNC(=O)CSc1nc(N(C)C)nc(N2CCOCC2)n1,19.2%
16,Cc1ccccc1CSc1nc2ccccc2c(=O)[nH]1,0.279%
17,C=CCn1c(=O)c2c(C)c(C)sc2n2c(Nc3ccc(OC)cc3)nnc12,3.59%
18,CCCCc1ccc(NC(=S)NN2CCOCC2)cc1,5.15%
19,COc1ccc(N(CC(=O)NCCSCc2c(F)cccc2Cl)S(C)(=O)=O)cc1OC,-6.45%
20,CCc1sc(NC(=O)c2cc3ccccc3oc2=O)nc1-c1cccs1,9.1%
21,CC(C)Oc1ccc(N2CC(C(=O)NC3=NCCS3)CC2=O)cc1 (stereo not drawn),5.56%
22,COc1ccccc1NC(=O)CC(=O)c1ccccc1,18.3%

row,Compound,"hERG current change (%, negative = inhibition) at 10uM"
1,CN(C)/C=N/C(=S)Nc1ccccc1Cl,16.6%
2,COc1ccc(CNCC(O)(c2ccccc2)c2ccccc2)cc1,-64%
3,Nc1cccc(Cl)c1N1CCOCC1,8.66%
4,Cc1ccsc1CN(C(=O)c1ccc([N+](=O)[O-])cc1)C1CCS(=O)(=O)C1 (stereo not drawn),-60.8%
5,COc1cc(NC(=O)CSc2ncnc3scc(-c4ccccc4)c23)c(C(=O)O)cc1OC,-45.7%
6,Nc1cc(N)nc(SCCc2ccccc2)n1,1.76%
7,O=c1[nH]c(CN2CCN(c3ccccc3)CC2)nc2scc(-c3ccccc3)c12,5%
8,Cn1ncc2cc(NC(N)=S)ccc21,9.29%
9,COC(=O)/C(=C\C(=O)c1ccccc1)Nc1ccc(OC)cc1,-2.25%
10,C=CCOc1ccc(/C(O)=C2\C(=O)C(=O)N(CCCOC)C2c2ccncc2)cc1 (stereo not drawn),15.8%
11,CCOC(=O)N1CCC(NC(=O)c2ccccc2C(=O)O)CC1,-2.62%
12,CC(=O)Nc1nc(C2CC2)cc(-c2ccccc2)c1C#N,7.17%
13,CCN(CC)CCNC(=O)Cn1cnc2sc(C)c(S(=O)(=O)N3CCN(c4ccccc4OC)CC3)c2c1=O,8.64%
14,Cc1cc(Br)c(OCc2ccc(C(=O)N/N=C3\CC4CC=CC34)cc2)c(Br)c1 (stereo not drawn),1.57%
15,COC(=O)Cn1nnc(N2CCOCC2)n1,22.2%
16,CC(OC(=O)C1CSC2(c3ccc(F)cc3)CCC(=O)N12)C(=O)NC(N)=O (stereo not drawn),-8%
17,CCN1CCN(C(c2ccccc2OC)c2nnnn2C2CCCCC2)CC1.Cl (stereo not drawn),-0.942%
18,CC(C)CN(C(=O)C1COc2ccccc2O1)c1c(N)n(CC(C)C)c(=O)[nH]c1=O (stereo not drawn),-2.18%
19,Fc1ccc(C(c2nnnn2C2CCCC2)N(Cc2ccco2)CC2CCCO2)cc1 (stereo not drawn),-28%
20,O=S(=O)(c1ccc(NC(=S)N/N=C/c2c3ccccc3cc3ccccc23)cc1)N1CCOCC1,8.09%
21,COc1cc(/C=C/C(=O)OCC(=O)Nc2cc(C)c(C)cc2[N+](=O)[O-])ccc1O,10.2%
